Here are results for 3 molecules from article PMC10277598.

No constants are given. Whether binding was seen depends on the method and setting. Some results given as binding are weak or reduced against the parent protein; the word gives no strength.

Assay [1] concerns the target T1, T25-BarA hybrid protein (Escherichia coli) (UniProt P0AEC5).
T1 sequence: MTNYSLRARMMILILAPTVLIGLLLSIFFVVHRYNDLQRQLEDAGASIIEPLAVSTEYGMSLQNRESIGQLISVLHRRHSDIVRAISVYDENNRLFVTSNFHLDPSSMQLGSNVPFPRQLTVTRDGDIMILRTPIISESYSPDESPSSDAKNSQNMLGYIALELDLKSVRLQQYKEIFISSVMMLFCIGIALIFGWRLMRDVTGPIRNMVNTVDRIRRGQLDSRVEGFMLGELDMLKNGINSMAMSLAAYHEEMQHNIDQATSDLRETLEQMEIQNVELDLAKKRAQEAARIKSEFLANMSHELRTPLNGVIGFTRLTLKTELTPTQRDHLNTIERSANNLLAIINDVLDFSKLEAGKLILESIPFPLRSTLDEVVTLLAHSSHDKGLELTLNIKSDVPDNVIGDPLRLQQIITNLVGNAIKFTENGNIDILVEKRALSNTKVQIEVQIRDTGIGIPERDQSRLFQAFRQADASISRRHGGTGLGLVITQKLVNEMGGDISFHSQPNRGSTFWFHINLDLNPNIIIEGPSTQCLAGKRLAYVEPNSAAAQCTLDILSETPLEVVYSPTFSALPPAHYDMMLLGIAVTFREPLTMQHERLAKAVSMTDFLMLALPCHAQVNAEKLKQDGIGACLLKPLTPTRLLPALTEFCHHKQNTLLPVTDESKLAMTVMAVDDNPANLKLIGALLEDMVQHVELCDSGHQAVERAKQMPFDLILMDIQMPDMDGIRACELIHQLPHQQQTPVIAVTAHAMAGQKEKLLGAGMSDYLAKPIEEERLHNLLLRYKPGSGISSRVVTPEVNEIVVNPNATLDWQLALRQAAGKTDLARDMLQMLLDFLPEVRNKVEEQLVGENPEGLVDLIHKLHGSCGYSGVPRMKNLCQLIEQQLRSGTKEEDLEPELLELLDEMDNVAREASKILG
As to the kind of experiment: two-hybrid; bacterial adenylate cyclase two-hybrid (T25 and T18 fusions) in E. coli BTH101 (cya-), 30 °C, 0.5 mM IPTG; blue colonies on X-gal agar plates and β-galactosidase activity of liquid cultures at A600 0.6.

Assay [2] concerns the target T2, T25-ArcA hybrid protein (Escherichia coli) (UniProt P0A9Q1).
T2 sequence: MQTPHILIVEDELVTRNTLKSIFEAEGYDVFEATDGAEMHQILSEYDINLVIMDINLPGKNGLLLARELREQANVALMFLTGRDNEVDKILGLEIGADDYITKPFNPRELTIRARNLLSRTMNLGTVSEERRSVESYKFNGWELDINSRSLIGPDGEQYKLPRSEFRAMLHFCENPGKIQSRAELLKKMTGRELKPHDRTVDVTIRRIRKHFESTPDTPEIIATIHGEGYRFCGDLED
Described as above.

B1: T18-HflK hybrid protein (protein, UniProt P0ABC7 1-419)
chain: MAWNQPGNNGQDRDPWGSSKPGGNSEGNGNKGGRDQGPPDLDDIFRKLSKKLGGLGGGKGTGSGGGSSSQGPRPQLGGRVVTIAAAAIVIIWAASGFYTIKEAERGVVTRFGKFSHLVEPGLNWKPTFIDEVKPVNVEAVRELAASGVMLTSDENVVRVEMNVQYRVTNPEKYLYSVTSPDDSLRQATDSALRGVIGKYTMDRILTEGRTVIRSDTQRELEETIRPYDMGITLLDVNFQAARPPEEVKAAFDDAIAARENEQQYIREAEAYTNEVQPRANGQAQRILEEARAYKAQTILEAQGEVARFAKLLPEYKAAPEITRERLYIETMEKVLGNTRKVLVNDKGGNLMVLPLDQMLKGGNAPAAKSDNGASNLLRLPPASSSTTSGASNTSSTSQGDIMDQRRANAQRNDYQRQGE
Turning to B1, the results for the binding result in assay [1] and in assay [2] were “binds” and “no binding”, respectively.

B2: T18-ArcA hybrid protein (protein, UniProt P0A9Q1 1-238)
chain: T2 sequence
B2: the binding result in assay [1] is listed as “no binding”.

B3: T18-HflC hybrid protein (protein, UniProt P0ABC3 1-334)
chain: MRKSVIAIIIIVLVVLYMSVFVVKEGERGITLRFGKVLRDDDNKPLVYEPGLHFKIPFIETVKMLDARIQTMDNQADRFVTKEKKDLIVDSYIKWRISDFSRYYLATGGGDISQAEVLLKRKFSDRLRSEIGRLDVKDIVTDSRGRLTLEVRDALNSGSAGTEDEVTTPAADNAIAEAAERVTAETKGKVPVINPNSMAALGIEVVDVRIKQINLPTEVSEAIYNRMRAEREAVARRHRSQGQEEAEKLRATADYEVTRTLAEAERQGRIMRGEGDAEAAKLFADAFSKDPDFYAFIRSLRAYENSFSGNQDVMVMSPDSDFFRYMKTPTSATR
Take B3: the binding result in assay [1] is on record as “binds”; in assay [2] it was “no binding”.
